According to the RNAGym collection of RNA variant scans (doi:10.1073/pnas.2313332121):
This sample is rich in variants without activity.

B1: TPR 5TU (parent)
chain: GGAUCUUCUCGAUCUAACAAAAAAGACAAAUCUGCCACAAAGCUUGAGAGCAUCUUCGGAUGCAGAGGCGGCAGCCUUCGGUGGCGCGAUAGCGCCAACGUUCUCAACUAUGACACGCAAAACGCGUGCUCCGUUGAAUGGAGUUUAUCAUG

Variants of: B1
Test: polymerase ribozyme fitness, log enrichment relative to wild type (log ratio); higher = more active; in vitro selection for triplet polymerase activity
Procedure, shortened: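 In triplicate, a single round of in vitro selection was run on each mutant library, PCR-built and transcribed, covering one subunit of a heterodimeric triplet polymerase ribozyme. Frozen incubation at −7 °C followed annealing with a biotinylated primer, partner subunit and triplets, and extended constructs were then gel-excised, streptavidin-captured and taken through RT-PCR. Fitness is the logarithm of genotype enrichment over wild-type enrichment, from inverse-variance-weighted replicate averages of Illumina-sequenced inputs and outputs. […] only genotypes with ≥10 input reads and ≥1 read per output were kept.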

| Variant | polymerase ribozyme fitness (log ratio) |
| --- | --- |
| U6C A23G U61A | ≤ -4.2 |
| U6A A23G C76A C99G | ≤ -4.2 |
| U6A U44A C57G G70A G80A C85U G126U C131G | ≤ -4.2 |
| U6C C54U C76U | -2.15 |
| U6A A52G U56G C85A C131U A137G | ≤ -4.2 |
| U6A A17U C18G A20C A22G C27U U56A C99A | ≤ -4.2 |
| U6G G46A A49C G58A A97U | ≤ -4.2 |
| C5U G25U C85A A106G C125A U130G U139C | ≤ -4.2 |
| U6G C85A C125G | -0.955 |
| U6C G88A | ≤ -4.2 |
| U6G C8U U31C C76G U109G A119G G141C | ≤ -4.2 |
| U6C A29C C51A C95G U148G | ≤ -4.2 |
| U6A A26U A29G G67C U90A | ≤ -4.2 |
| U6G G94C C123A | 0.0628 |
| U6A G50U U53A C99G A115U | ≤ -4.2 |
| U6A A16U A29U A39G C57G A66C C85G A91U | ≤ -4.2 |
| U6A C57A G68C G94C A110G A113U | ≤ -4.2 |
| U6G A23G U144G | -3.95 |
| U6C A23U G25C A91G | ≤ -4.2 |
| U6C G42C A60G G94U C105G | ≤ -4.2 |
| U6A A37G G80A C87A U102G | ≤ -4.2 |

| Variant | polymerase ribozyme fitness (log ratio) |
| --- | --- |
| C5U G46A A52G C85U A107U C118A A137U | ≤ -4.2 |
| U6C A20G A26U G50C U53A A106G U135G | ≤ -4.2 |
| U6G C63U A89C | -0.961 |
| U6A G84U G92C C99U | ≤ -4.2 |
| U6G C43G A49U G86A C96U C105A G141U | ≤ -4.2 |
| U6C A19C A26G C85G C108A | ≤ -4.2 |
| U6G C35U U55G A121C C125U A137U U139C | ≤ -4.2 |
| U6C U7A A26C G42A A47G G71A C131U U134C | ≤ -4.2 |
| C5U U7G G11C A30U A47C C54G C57U A64C G92C | ≤ -4.2 |
| U6G A28U | -3.76 |
| C5U G50U C85U U90G C95U C96G U139G | ≤ -4.2 |
| U6G A19G A30U A119G | ≤ -4.2 |
| U6G C18U G62U G92C U111G G143C | ≤ -4.2 |
| U6C A49G C87G C96U G117U C118A | ≤ -4.2 |
| U6G A24C G25U C43U G83A A106U G143C A147G | ≤ -4.2 |
| U6C A49C U53A C54U C87U U148G | ≤ -4.2 |
| U6C G59C C93U C105A A150C G152U | ≤ -4.2 |
| U6A U13A U61A C76A A91G | ≤ -4.2 |
| U6G A17U A60G C93A A98U | -1.75 |
| U6G C95U C96G | -0.705 |
| U6A C85U A91G C99A U151A | ≤ -4.2 |

| Variant | polymerase ribozyme fitness (log ratio) |
| --- | --- |
| U6G A73C C99U | ≤ -4.2 |
| U6A C10G A39U A40U C54G | ≤ -4.2 |
| U6C A30U U55A | ≤ -4.2 |
| U6G A17C G25U A47C G84C A91U | ≤ -4.2 |
| U6A A19C A24U A28G G141C G152A | -3.96 |
| U6C C57A A60U A110C C131A | ≤ -4.2 |
| C5U C38U C85G U101C | -1.38 |
| U6C A24U C54A A64G U77A U90G G92U | ≤ -4.2 |
| U6C A39U C72A U82C G84U U144G | ≤ -4.2 |
| U6A C35A C63U C69U C76A G83C | ≤ -4.2 |
| U6A A29C U44C G83U C87U A97G C149G | ≤ -4.2 |
| U6G G59C C85U G92U U127A | ≤ -4.2 |
| U6A C10A G84A A89C C125G G143U | ≤ -4.2 |
| U6G A41G G48U C54U A122U | -0.949 |
| U6G A17U A19U G25U A29G A73U C75G G88C G92A U144C | ≤ -4.2 |
| C5U U7A C54G U82G G94A U104C G117A A119U G124U G136A U151G | ≤ -4.2 |
| U6A C14U G59A G86C C93G G94U U109C | ≤ -4.2 |
| U6A A12G A17C A52C U56A U77A C85U G124C G126A G143C | ≤ -4.2 |
| U6G G34C A39U C85G C105A A113U | ≤ -4.2 |
| U6C U31G G50C C69G G94C A119U U151A | ≤ -4.2 |
| U6A C51A G58C C63G C93G U104G U145A U148C | ≤ -4.2 |

| Variant | polymerase ribozyme fitness (log ratio) |
| --- | --- |
| U6A A26C A98U G136U | -4.09 |
| U6C G46A G71A C96G U127C | ≤ -4.2 |
| U6A A21G A22U A26U A30U U44G G50U A97G C103A U135A | ≤ -4.2 |
| U6C C14A A17G A30G U55A C95A G100A C105G U139G A142C | ≤ -4.2 |
| U6G C14U | -1.09 |
| U6G A17C C54U C72U G74A U77C G88C | ≤ -4.2 |
| U6A C8A A19U A20U C72U U77A U101A | ≤ -4.2 |
| C5U U9C C87G U101G C105U A107G C118G U148G | ≤ -4.2 |
| U6G C14U A19U G84U G100A | ≤ -4.2 |
| U6A C96U | -0.0433 |
| U6A A28U A52C G70C G86U U90G A106G A113G A138U U139C C149A | ≤ -4.2 |
| U6A G50C C57A G83U C87A G94A | ≤ -4.2 |
| U6C A26U A52U G84U | ≤ -4.2 |
| U6C C38A C54U C95U C103A U148A G152C | ≤ -4.2 |
| U6C A16U A91U G136U U144C | ≤ -4.2 |
| U6C A17G U44A G65U G68U C93A C125U | ≤ -4.2 |
| U6G G62U G80C C87U A89U G126U | ≤ -4.2 |
| U6A C85U G140C | -3.99 |
| U6A A16G C36A G68C U78A C85G A89U | ≤ -4.2 |
| U6G C8A G48A U56G C75U G80C G83U G92U C93A C99U G100U | ≤ -4.2 |
